Laboratory results published in the supplement of paper PMC12889115.
This is one part of the list. Many values rest on one well or one pass, so single values are uncertain.

tested on: Salmonella enterica serovar Typhimurium SL1344; assay: bacterial growth OD600 after 18 h in MHB with 0.5 µg/mL polymyxin B; higher = more bacterial growth (less inhibition); conditions: 25 µM; polymyxin B 0.5 µg/mL; system: broth
Method: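 Secondary screen of the 553 primary hits at 25 µM. (i) S. Typhimurium SL1344 grown in Mueller-Hinton broth with 0.5 µg/mL polymyxin B, OD600 read after 18 h. (ii) SAFIRE assay: RAW 264.7 macrophages infected with S. Typhimurium sifB::gfp (MOI 30); compound added 2 h post-infection; cells fixed at 18 h; GFP-positive pixel fraction per macrophage imaged by confocal microscopy and expressed as % of DMSO control.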
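Further: polymyxin B level opens the outer membrane while sparing the inner membrane, with novobiocin wells as reference growth inhibitor.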

Compound	bacterial growth OD600
O=C(c1ccc(-c2ccccc2)cc1)C1CCCN(C(=O)CCc2ccncc2)C1 (centres undefined)	0
CC1CN(Cc2ccc3ncccc3c2)Cc2cc(Cl)ccc2O1 (centres undefined)	0.001
COCCN1C(=O)CC(CC(=O)N2CCC(c3ccccc3F)C2)(c2ccccc2OC)C1=O (centres undefined)	0.338
CCOC(=O)C1(C/C=C/c2ccccc2)CCCN(Cc2nccs2)C1 (centres undefined)	0.063
CN(c1ncccc1CNS(C)(=O)=O)C1CCCCC1	0.635
COc1cc(C(=O)N(Cc2ccncc2)Cc2cccc(OCCc3ccc(F)cc3)c2)cc(OC)c1OC	-0.016
COCCCN1C(=O)CC(CC(=O)N2CCCC(c3ccccc3C)C2)(c2ccccc2Cl)C1=O (centres undefined)	-0.007
CCOC(=O)C1(CCc2ccccc2)CCCN(C(=O)c2ccc(COC)s2)C1 (centres undefined)	0.004
COc1ccc(-c2ccccc2NC(=O)C2CCCN2CCCC(F)(F)F)cc1 (centres undefined)	-0.005
Cc1cc(C)n(Cc2ccc(C(=O)N(Cc3ccncc3)Cc3cccc(OCCc4ccc(F)cc4)c3)cc2)n1	0.001
COc1ccc2cc(CN(Cc3ccco3)C(=O)CCn3ccc(C)n3)c(N3CCCCCC3)nc2c1	0
O=C(c1ccc2oc(-c3cccc(F)c3)nc2c1)N1C[C@@H]2CCC[C@H]1C2	0.03
COc1ccc(CC2(CCC(=O)N3CCN(c4cc(Cl)ccc4C)CC3)CCC(=O)N2)c(F)c1 (centres undefined)	-0.03
COc1ccccc1C(=O)C1CCCN(C(=O)c2csc(-c3cccs3)n2)C1 (centres undefined)	0.003
